Positions count from the first letter of the chain named.
B1: 5 (antibody)
heavy: EVQLVQSGAEVKKPGASVKVSCKVSGYTLTELSMQWVRQAPGKGLEWMGGFDPDDGETMYAEKFQGRLTVTEDTSTDTVYMELRSLTSEDTALYFCATSPGYDFFDYWGQGTLVTVSSASTKGPSVFPLAPSSKSTSGGTAALGCLVKDYFPEPVTVSWNSGALTSGVHTFPAVLQSSGLYSLSSVVTVPSSSLGTQTYICNVNHKPSNTKVDKRV[omitted - human IgG1 Fc]
light: SYVLTQPPSVSVAPGQTASITCVGTNFGSKNVHWYQQRPGQAPVLVVYDDSDRPSGIPERFSGSNSGNTATLTISRVEAGDEADYYCQVWDSSSDHLIFGGGTKLTVLGQPKAAPSVTLFPPSSEELQANKATLVCLISDFYPGAVTVAWKADSSPVKAGVETTTPSKQSNNKYAASSYLSLTPEQWKSHRSYSCQVTHEGSTVEKTVAPTECS
B2: 53 (antibody)
heavy: QVQLVQSGAEVKKPGASVKVSCKVSGYTLTELSMHWVRQAPGKGLEWMGGFDPEDGETIYAQKFQGRVTMTEDTSTDTAYMELSSLRSEDTAVYYCATDIQGLAEFDYWGQGTLVTVSSASTKGPSVFPLAPSSKSTSGGTAALGCLVKDYFPEPVTVSWNSGALTSGVHTFPAVLQSSGLYSLSSVVTVPSSSLGTQTYICNVNHKPSNTKVDKRV[omitted - human IgG1 Fc]
light: QSALTQPRSVSGSPGQSVTISCTGTNTDVGAYIDVSWYQQHPGKAPKLIIYDVSKWPSGVPDRFSGSKSGNTASLTISGLQAEDEADYYCCSYAGNHSFSFGGGTKVTVLGQPKAAPSVTLFPPSSEELQANKATLVCLISDFYPGAVTVAWKADSSPVKAGVETTTPSKQSNNKYAASSYLSLTPEQWKSHRSYSCQVTHEGSTVEKTVAPTECS
B3: 7 (antibody)
heavy: B1 heavy
light: B1 light with S75N, S94N, H96L
B4: 8 (antibody)
heavy: B1 heavy with E1Q, A16S
light: B1 light with V3E, S19R, V23G, T25N, F27I, N31S, R38K, N68R, Y86H, I98V
B5: 34 (antibody)
heavy: QVQLVQSGAEVKKPGATVKISCKVSGYSFTDYFIHWVQQAPGKGLAWVGLVDPEDGETIYAEKFQGRVTITADTSTDTAYMELSSLRSEDTAVYYCATPGGILTDPDAFDIWGQGTMVTVSSASTKGPSVFPLAPSSKSTSGGTAALGCLVKDYFPEPVTVSWNSGALTSGVHTFPAVLQSSGLYSLSSVVTVPSSSLGTQTYICNVNHKPSNTKVDKRV[omitted - human IgG1 Fc]
light: QSALTQPASVSGSPGQSITISCTGTSSDVGGYNYVSWYQQHPGKAPKLMIYEVSNRPSGVSNRFSGSKSGNTASLTISGLQAEDEADYYCSSYTSSSTYVFGTGTKVTVLGQPKAAPSVTLFPPSSEELQANKATLVCLISDFYPGAVTVAWKADSSPVKAGVETTTPSKQSNNKYAASSYLSLTPEQWKSHRSYSCQVTHEGSTVEKTVAPTECS
B6: 35 (antibody)
heavy: B5 heavy with K63R
light: QSALTQPASVSGSPGQSITISCTGTSSDVGGYNYVSWYQQHPGKAPKLMIYEVSNRPSGVSNRFSGSKSGNTASLTISGLQAEDEADYYCSSYTSSSTPYVFGTGTKVTVLGQPKAAPSVTLFPPSSEELQANKATLVCLISDFYPGAVTVAWKADSSPVKAGVETTTPSKQSNNKYAASSYLSLTPEQWKSHRSYSCQVTHEGSTVEKTVAPTECS
B7: 41 (antibody)
heavy: EVQLVQSGAEVKKPGASVKVSCKVSGYTLTELSMHWVRQAPGKGLEWMGLVDPEDGETIYAQKFQGRVTMTEDTSTDTAYMELSSLRSEDTAVYYCAREEWSGDGDDAFDIWGQGTMVTVSSASTKGPSVFPLAPSSKSTSGGTAALGCLVKDYFPEPVTVSWNSGALTSGVHTFPAVLQSSGLYSLSSVVTVPSSSLGTQTYICNVNHKPSNTKVDKRV[omitted - human IgG1 Fc]
light: QSVLTQPPSVSAAPGQKVTISCSGSSSNIGSYSVSWYQQLPGTAPKLLIYDNNKRPSGIPDRFSGSNSGTSATLGITGLQTGDEADYYCGTWDSSLSAWVFGGGTKLTVLGQPKAAPSVTLFPPSSEELQANKATLVCLISDFYPGAVTVAWKADSSPVKAGVETTTPSKQSNNKYAASSYLSLTPEQWKSHRSYSCQVTHEGSTVEKTVAPTECS
B8: 3 (antibody)
heavy: B1 heavy with K63R
light: B1 light with S19R, V23G, T25N, F27I, N31S, R38K, S75N, S94N, H96L
B9: 20 (antibody)
heavy: B1 heavy
light: B1 light with Q16K, S19R, V23G, T25N, F27I, N31G, R38K, S75N, S94N, H96L
B10: 22 (antibody)
heavy: B1 heavy
light: B1 light with Q16K, S19R, V23G, T25N, F27I, R38K, S75N, S94N, H96L
B11: 23 (antibody)
heavy: B1 heavy
light: B1 light with S19R, V23G, T25N, F27I, S29I, N31S, R38K, S75N, S94N, H96L
B12: 1 (antibody)
heavy: B1 heavy
light: SYVLTQPPSVSVAPGKTARITCGGNYIGSKSVHWYQQKPGQAPVLVVYDDGDRPSGIPARFSGSNSGNTATLTISRVEAGDEADYYCQVWDSISDHVVFGGGTKLTVLGQPKAAPSVTLFPPSSEELQANKATLVCLISDFYPGAVTVAWKADSSPVKAGVETTTPSKQSNNKYAASSYLSLTPEQWKSHRSYSCQVTHEGSTVEKTVAPTECS

Each molecule was assayed on MPL-mutCALR cells (BaF3 cells stably expressing human MPL and human mutCALR) (assay: Flow cytometry binding to cell surface MPL and mutCALR (GMFI, four parameter fit)). Details: four parameter curve fitting.
Experimental: To assess binding of CALR antibodies to cell surface CALR, parental BaF3 (DSMZ) cells or BaF3 cells stably expressing only human MPL or both human MPL (Uniprot Number: P40238-1) and human mutCALR Type 1 and Type 2 were used. On the day of the assay, cells were washed and resuspended in assay buffer. Approximately 200,000 cells/well were added to 96-well plates and stained with the indicated concentration of antibodies for 30 minutes on ice. Cells were then washed and stained with goat anti-human secondary conjugated to R-phycoerythrin (R-PE) (Jackson Immuno Research Laboratories) for 30 minutes on ice. The cells were then washed and analyzed by flow cytometry. Geometric Mean Fluorescence Intensity (GMFI) of cell binding was graphed and EC50, hill slope, and area under the curve (AUC) were determined after four parameter curve fitting using GraphPad Prism Software (version 7.04).

| Molecule | MPL-mutCALR Hill Slope |
| --- | --- |
| B1 | 0.31 |
| B2 | 0.68 |
| B3 | 0.24 |
| B4 | 0.27 |
| B5 | 0.53 |
| B6 | 0.43 |
| B7 | 0.17 |

Each molecule was assayed against T1, recombinant MBP-mutCALR Type 1 fusion protein (Homo sapiens, UniProt P27797, DEL40-40) (assay: Biacore SPR binding kinetics, Experiment 2 (parental and variant antibodies)). Details: Biacore 8K, 25° C., 1:1 binding model.
T1 construct: His6 (N); purchased Cepter (cepterbiopartners.com), custom made

| Molecule | ka [M⁻¹ s⁻¹] | kd [s⁻¹] |
| --- | --- | --- |
| B2 | 6.36e+06 | 0.108 |

What follows are molecules tested against T1, recombinant MBP-mutCALR Type 1 fusion protein (assay: Biacore SPR binding kinetics, Experiment 1). Details: Biacore 8K, 25° C., 1:1 binding model.
Experimental: The amino acid sequence of recombinant MBP-mutCALR Type 1 fusion protein used in Experiments 1 and 2 is:
Experiment 1: Recombinant MBP-mutCALR Type 1 fusion protein was custom made at Cepter (cepterbiopartners.com). Data for the interaction of antibodies with recombinant MBP-mutCALR Type 1 fusion protein were collected at 25° C. on a Biacore 8K instrument (Cytiva, Marlborough, Mass.), and all reagents were obtained from Cytiva unless otherwise specified. The experiments were conducted using Tris-buffered saline (pH 7.2), 0.005% Surfactant P20, 1 mM CaCl2) as running buffer. To prepare the capture surfaces, anti-human IgG (Fc) antibodies (Product #29234600) was amine-coupled onto a CM4 chip (Product #BR100534) under standard conditions using an Amine Coupling Kit (Product #BR100050). Anti-mutCALR antibodies were captured onto the chip surface by injecting over flow cell 2 only at a flow rate of 30 μL/min for 30 seconds. […] The kinetics parameters were obtained by applying 1:1 binding model to fit the data from multiple-cycle injection experiments using Biacore Insight Evaluation software.

| Molecule | ka [M⁻¹ s⁻¹] | kd [s⁻¹] |
| --- | --- | --- |
| B1 | 935000 | 0.00405 |
| B2 | 229000 | 0.00235 |
| B3 | 1.59e+06 | 0.00609 |
| B4 | 1.75e+06 | 0.00802 |
| B5 | 2.27e+06 | 0.00581 |
| B6 | 2.13e+06 | 0.00599 |
| B7 | 1.66e+06 | 0.00811 |
| B8 | 2.08e+06 | 0.00716 |
| B9 | 1.12e+06 | 0.00498 |
| B10 | 229000 | 0.00289 |
| B11 | 785000 | 0.00343 |
| B12 | 1.38e+06 | 0.0196 |

These molecules were tested on Ba/F3 cells transfected with MPL and mutCALR Type 1 (assay: Inhibition of cell proliferation, CellTiter-Glo 72 hours, mutCALR Type 1). Details: Ba/F3 engineered cells, high-throughput primary screening.
Type: cell-based
Experimental: To test the ability of anti-mutCALR antibodies to inhibit cell proliferation, engineered Ba/F3 cells transfected with MPL and mutCALR Type 1 were plated at 5,000 cells per well in RPMI 1640+2% FBS, antibodies added, incubated for 72 hours, and followed by assessment of cell viability using the CellTiter-Glo Luminescent Cell Viability Assay (Promega, Madison, Wis.) and Top Count (Perkin Elmer, Boston, Mass.) or Pherastar (BMG Labtech, Ortenberg, Germany) for luminescence quantification. Anti-mutCALR antibodies inhibit mutCALR-induced oncogenic cell proliferation in a dose-dependent manner in both the Ba/F3 engineered cells (FIG. 2).
To test the ability of anti-mutCALR antibodies to inhibit oncogenic cell proliferation triggered by the Type 1 and Type 2 CALR mutations, Ba/F3 cells (DSMZ) were engineered to express MPL+mutCALR Type 1 (52 bp deletion, SEQ ID NO:320) or MPL+mutCALR Type 2 (5 bp insertion; SEQ ID NO:321). Cells were plated at 5,000 cells per well in RPMI 1640+2% FBS, antibodies added, incubated for 72 hours, and followed by assessment of cell viability using the CellTiter-Glo Luminescent Cell Viability Assay (Promega, Madison, Wis.) and Top Count (Perkin Elmer, Boston, Mass.) or Pherastar (BMG Labtech, Ortenberg, Germany) for luminescence quantification. Anti-mutant CALR antibodies show potency to inhibit mutCALR-induced oncogenic cell proliferation associated with both Type 1 and Type 2 mutations (FIG. 3).

| Molecule | IC50 inhibition of cell proliferation [ng/mL] |
| --- | --- |
| B1 | 4.9 |
| B3 | 11.3 |
| B4 | 6.7 |
| B8 | 9.5 |
| B9 | 13.6 |
| B10 | 7.7 |
| B11 | 6.5 |
| B12 | 834.5 |

Source: patent US20230272055A1, “ANTI-MUTANT CALRETICULIN (CALR) ANTIBODIES AND USES THEREOF” (Incyte Corporation, priority 2021, published 2023)
